# Data taken from the supplement of paper PMC3334620.
# Whole data set: some 33,000 sequences, median “E-score (-0.5 to 0.5)” near -0.016, cut for the highest 2% near 0.32. Some of the results follow.
# Molecular target: T1, Stp1 (UniProt B3LFK1)
# T1 sequence: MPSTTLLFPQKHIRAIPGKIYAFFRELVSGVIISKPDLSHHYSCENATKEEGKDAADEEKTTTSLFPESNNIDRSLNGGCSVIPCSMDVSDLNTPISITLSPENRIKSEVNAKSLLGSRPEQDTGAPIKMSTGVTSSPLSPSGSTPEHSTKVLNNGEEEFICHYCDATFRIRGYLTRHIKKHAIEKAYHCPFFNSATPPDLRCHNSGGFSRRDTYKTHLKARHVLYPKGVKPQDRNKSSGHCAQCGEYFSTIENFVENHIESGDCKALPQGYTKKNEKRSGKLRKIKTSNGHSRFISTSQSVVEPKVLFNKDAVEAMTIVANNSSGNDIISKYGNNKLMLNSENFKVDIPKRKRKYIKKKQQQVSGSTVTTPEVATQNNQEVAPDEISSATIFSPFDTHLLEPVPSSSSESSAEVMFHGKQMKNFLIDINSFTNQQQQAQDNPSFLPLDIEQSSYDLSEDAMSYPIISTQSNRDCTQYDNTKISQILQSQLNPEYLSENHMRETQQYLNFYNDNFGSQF
# Assay: PBM E-score (8-mer binding enrichment) (E-score (-0.5 to 0.5)); higher = stronger / more preferred TF binding; most listed sequences are background and not binding sites
# Details: protein concentration: 200 nM; construct: GST-full length
# In short: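 Masliner-normalised scans of fluorescent anti-GST signal were the basis for scoring. That signal came from GST-tagged yeast transcription factors applied at about 100-200 nM to double-stranded universal all-10-mer Agilent arrays on fresh or once-stripped slides. Each ungapped eight-base word, pooled with its reverse complement, received an E-score from the Universal PBM Analysis Suite.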
row,Sequence,PBM E-score
1,AGCGTAGC,-0.138
2,ATTGAAGG,-0.159
3,CCTGTGAC,-0.203
4,CCGGCATC,-0.0881
5,AAGCTGAC,-0.176
6,CAAACGGC,0.459
7,ACCTGAGA,-0.149
8,AGCCCGCA,-0.0688
9,AATGATTC,-0.0322
10,CCCTCTAC,-0.256
11,AAATGCCG,0.443
12,CCGAACCA,-0.0367
13,TCGGAGCA,-0.154
14,AACCACTG,-0.0129
15,AAAAGGAC,0.0161
16,ACCGACCC,-0.123
17,ACCGCAGT,-0.27
18,GAGCCCGA,-0.0565
19,AAATTTGA,0.114
20,CTTACAAG,0.0909
21,GCGATTCC,0.155
22,ACATACCT,-0.0669
23,GTACTGAC,0.012
24,CGATCTTC,-0.0457
25,AACTACGG,-0.0064

row,Sequence,PBM E-score
1,AACGCTCT,-0.216
2,AGGAGGTC,-0.254
3,CAGCCCAG,-0.245
4,CCCCGTTA,-0.139
5,TATAGGGA,-0.174
6,GGCCCTAA,0.0628
7,CGGATCCG,-0.00053
8,TATTCCCA,-0.11
9,CAGAGTCA,-0.168
10,AGATGGTC,-0.14
11,GAGACTAA,-0.0418
12,GCCGCGGA,0.343
13,CTAGTCAG,-0.176
14,CACCCGCG,0.0867
15,CGGGCAGC,-0.0936
16,AGCCGTTA,0.159
17,GCGGGTCA,-0.0965
18,ACTAACAC,0.103
19,AGTTAAGC,0.112
20,CTAATGAA,0.176
21,AAAGATAG,-0.196
22,AACGCATC,-0.145
23,AAGTCTCA,-0.256
24,CTTGGAGA,-0.0579
25,CTTTTGAA,0.108

row,Sequence,PBM E-score
1,CCTAATCG,0.0111
2,CGCGAAAA,0.239
3,CGGTGCTC,-0.056
4,AACGGAAA,0.0889
5,CAGGCCCG,-0.294
6,ACATACTG,-0.131
7,CACTCACG,0.0515
8,ATAATACG,0.122
9,GACTCATA,-0.196
10,AGAAATCG,0.0541
11,TCGCGTAA,0.235
12,CGGCGCTC,0.427
13,CTGATACC,-0.0583
14,GTCCAGCA,-0.167
15,CTTCTCCC,-0.277
16,AGTCTCGA,-0.171
17,CAGTGTAA,0.117
18,GGCACAAA,0.374
19,GACAAAGA,0.0251
20,GGACCCAC,-0.128
21,CACGAGCG,0.0362
22,CAGGTCTA,-0.224
23,GAGGATGA,-0.106
24,AGACCATC,-0.131
25,AACCATTA,0.123

row,Sequence,PBM E-score
1,AGGAGCTC,-0.213
2,CCGGTCTA,-0.093
3,CTACGACC,-0.123
4,AGCTCCGG,-0.216
5,CACTCCTC,-0.186
6,ATACACCG,-0.116
7,ATATTATA,0.0917
8,ACGGAAGA,0.253
9,CTAGACCA,-0.128
10,CTGGTCAA,-0.0901
11,ATTTAGAA,0.192
12,CCGTACCG,0.253
13,CGGCCTGA,-0.145
14,AAGCGGCC,0.282
15,AAGTATAG,-0.0425
16,CAATGCGG,0.196
17,CCTAGTTC,-0.0366
18,CGAGCGCG,0.0983
19,ACTCAGGG,-0.24
20,AGTACAAC,0.0701
21,CACTAGGG,-0.07
22,GGACACAC,-0.0116
23,GTTCTAGA,0.0744
24,AGCTTTTG,0.0144
25,TCGTCGAA,-0.0605

row,Sequence,PBM E-score
1,CTGCTCCA,-0.0628
2,ATGTCATA,0.0494
3,CACACCAA,0.149
4,GCCACCAA,0.0233
5,ATTGCGAG,0.0325
6,AATCGACA,0.145
7,ACTCGTCG,-0.164
8,TATTTTCA,0.292
9,AGCTACCT,-0.211
10,TCTGGGAA,0.0506
11,AATTACGA,0.119
12,CCTTGACG,-0.2
13,GGTCTCCA,-0.135
14,GAGTCTTA,-0.174
15,AGATGCCA,0.0879
16,CCTTCCAG,-0.129
17,GGCCCGCA,-0.118
18,AATGAAGA,0.207
19,CACAAGGG,-0.132
20,AGGTGGCC,-0.294
21,ATAAGTAG,-0.0454
22,AGTGGGAC,-0.267
23,ACACAGGT,-0.268
24,CTTATCTA,0.193
25,ATGCGAAA,0.143

row,Sequence,PBM E-score
1,CCATGACC,-0.201
2,AGAGCGTG,0.0393
3,AGCCGCGC,0.424
4,TGCTTAAA,0.0459
5,GCCCTTCA,0.153
6,CATGTATC,-0.031
7,AGGTCGGA,-0.181
8,GACGTCCC,-0.341
9,AGAACATG,0.0109
10,CGGTATCA,0.0203
11,CCAACGGG,0.0431
12,ACGGGCCG,0.084
13,AGGATGTG,-0.136
14,TCCAGTCA,-0.14
15,GATTTAGC,-0.0872
16,CGGCTGCC,0.241
17,AGCGTAAT,-0.0167
18,ATTTACTC,0.161
19,TAAACCAA,0.0677
20,AACCAAAT,0.135
21,CTGCGTTA,-0.102
22,GATTGCCA,0.00762
23,GGAGACCC,-0.345
24,GCATGACA,0.0909
25,ATAGACAT,-0.172

row,Sequence,PBM E-score
1,CTTCGGCC,-0.145
2,ATTAGACG,0.158
3,ATTGAATA,0.242
4,CGAACGGC,0.467
5,GGCTGTGA,0.0981
6,GAGCAACC,-0.0821
7,AGTCTTCA,-0.113
8,AGTAGGGG,-0.197
9,AACGAGGC,0.3
10,AAAGTTGT,0.162
11,ATTATGAG,0.0796
12,ATCCACAG,-0.00511
13,CAAAAGAG,-0.0462
14,AATCGGCA,0.268
15,AAAAGTTA,0.0307
16,GCGTACGC,-0.0472
17,ACTTTCGA,-0.0877
18,GGCAGTGA,0.0454
19,CACCGGCC,-0.121
20,GGGCAGAC,-0.08
21,CTCACTGA,-0.0281
22,ATATTTGG,-0.0297
